Measured values as given in PubChem BioAssay AID493208 (National Center for Advancing Translational Sciences (NCATS), 2011).
Among all 44,000 compounds or so, about 340 (0.77%) were called active. About 5% were inconclusive and are not listed. Calls follow the shape of the dose curve; as a rule, active = well fitted inhibition curve with a large enough effect; inconclusive = small, poorly fitted or top-dose-only effect; inactive = flat fitted curve, though single readings scatter. Some of the results follow.

Experiment: Acumen qHTS Assay for Inhibitors of the mTORC1 Signaling Pathway in MEF (Tsc2-/-, p53-/-) Cells: Sytravon;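 also: plate controls were DMSO for no effect and rapamycin for full effect; nearly all actives have a fitted effect of over 50% in size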
Details: phospho-rpS6 immunofluorescence/PI, 24 h; series mostly up to 38.3 µM; activity change, negative = inhibition: at the top concentration
In short: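 Immunofluorescence of rpS6 phosphorylation in Tsc2-/-, p53-/- MEFs after 24 h compound exposure, normalized to propidium iodide signal. Activity is expressed as % positive cells, thresholded with 7.5 nM rapamycin.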

Activity change, negative = inhibition, inactive:
Cc1cccc(N2CCN(S(=O)(=O)c3ccc(-c4cnc(C5CC5)o4)cc3)CC2)c1C 0%
CCOC(=O)c1cccc(NC(=O)C(C)n2nc(C)c3c(C)n(-c4ccccc4)nc3c2=O)c1 (configuration not stated) -4.88%
Cc1ccc([N+](=O)[O-])cc1NC(=O)CN(c1ccccc1)S(=O)(=O)N(C)C -3.82%
Cc1oc(-c2ccccc2F)nc1CS(=O)(=O)CC(=O)N1CCN(c2ccccc2)CC1 0.964%
COc1ccc(NC(=O)Cn2c(=O)n(CCc3ccccc3)c(=O)c3ccccc32)cc1 2.15%
COc1ccc2nc(NC(=O)c3cc(=O)c4ccccc4o3)sc2c1 2.45%
Cc1noc(-c2ccc(NCc3ccccc3)c([N+](=O)[O-])c2)n1 0.478%
COc1cccc(CNS(=O)(=O)c2cc3c(cc2C)n(C)c(=O)c(=O)n3C)c1 0.934%
O=C(c1cccc(Cl)c1)N1CCN(CCc2ccccn2)CC1 0.0346%
CCCCNC(=O)c1c(C)oc2ncn(CC(C)C)c(=O)c12 -20.4%
CCOc1ccc(NC(=O)Cn2nc(-c3ccncc3)ccc2=O)cc1 -1.43%
Cc1ccccc1OCC(=O)Nc1cc(-c2cccc(Br)c2)nn1-c1ccccc1 0%
O=C(NCc1nc2cccnc2n1Cc1ccc(F)cc1)c1ccccc1C(F)(F)F -13.2%
COc1ccccc1CNCCSc1nnnn1C -22.6%
Nc1c(-c2nc(-c3ccncc3)no2)nnn1CC(=O)Nc1ccccc1 0.113%
COc1ccc(C(=O)N(Cc2ccco2)Cc2ccco2)cc1 -0.926%
COC(=O)c1c(N)n(-c2cc(Cl)cc(Cl)c2)c2nc3ccccc3nc12 -3.97%
CCC(=O)N1CCc2cc(Br)cc(S(=O)(=O)N3CCCC(C(=O)NCc4ccccc4)C3)c21 (configuration not stated) -1.94%
Cc1ccccc1CN1C(=O)c2ccccc2Sc2ccc(C(=O)NCc3cccs3)cc21 -3.16%
Cc1noc(/C=C/c2ccccc2F)c1S(=O)(=O)N1CCC(C(=O)N(C)Cc2ccco2)CC1 -10.2%
COc1ccc(S(=O)(=O)NCC(c2ccco2)N2CCOCC2)cc1C (configuration not stated) -4.42%
COc1ccccc1N1CCN(S(=O)(=O)c2c(C)sc3ncn(CC(=O)Nc4ccccc4F)c(=O)c23)CC1 -3.07%
CCOc1ccc(/C=C/c2nc3ccccc3n2S(=O)(=O)c2ccc(Br)cc2)cc1 -1.89%
COc1cccc(NC(=O)Cn2c(=O)n(-c3ccc(Cl)cc3)c(=O)c3sc4ccccc4c32)c1 -7.97%
CCc1ccc(NCc2cccn2-c2nnc(N3CCCCCC3)s2)cc1 -3.42%
CCOc1ccc(NC(=O)CSc2nnc(CNC(=O)c3c(F)cccc3Cl)o2)cc1 -0.625%
Cc1ccc2c(c1)N(C(=O)NCc1ccccc1)CCO2 -4.35%
CCC(C)NC(=O)c1ccc2c(=O)n3c(nc2c1)CCCCC3 (configuration not stated) 0.497%
Cc1ccc(NC(=O)Cn2nnc3sc(-c4ccccc4)cc3c2=O)cc1Cl -5.16%
COC(=O)c1ccc(Cl)cc1NC(=O)N(Cc1ccc(C)o1)C1CCN(C(C)=O)CC1 1.47%
COc1ccc(C(=O)NCC2(N3CCN(C)CC3)CCCCC2)cc1 -4.83%
COc1ccc(C)cc1NS(=O)(=O)c1ccc2c(c1)n(C)c(=O)n2C 0.0824%
CCC(CC)c1nn2c(=O)cc(COc3ccc(NC(=O)c4cccc(Cl)c4)cc3)nc2s1 -3.14%
CCn1c(=O)c(=O)n(CC)c2cc(N3CCCCC3)c(NC(=O)c3cccc(F)c3)cc21 -3.15%
Cc1nnc2c(Nc3cccc(O)c3)nc3ccccc3n12 4.36%
CCCN1Cc2cccc(C(=O)Nc3cc(C)cc(C)c3)c2C1=O -6.01%
CC(=O)Nc1ccc(C)cc1-c1nc2ccccc2n(CC(=O)Nc2cc(Cl)ccc2C)c1=O -15%
COc1ccc(Cl)cc1NC(=O)CCC(=O)N1CCOc2ccccc21 1.28%
COc1ccc(NC(=O)Cn2c(=O)n(Cc3ccc(C(=O)NCc4ccccc4Cl)cc3)c(=O)c3ccccc32)cc1OC -4.06%
COc1ccc(NC(=O)CSc2nc(-c3ccco3)cc(C(F)(F)F)n2)cc1 -20.3%
CC(C)c1ccc(OC(=O)c2cc(-c3ccc(Cl)cc3)on2)cc1 -18.6%
Cc1ccc(-n2ncc3c(NCCCn4ccnc4)ncnc32)cc1Cl 12.6%
CCN(CC)C(=O)Cn1c(=O)nc(-c2ccccc2F)c2cc(Cl)ccc21 14.1%
COC(=O)c1cnc(NCc2ccc(F)cc2)c2ccccc12 0%
Cc1cc(F)ccc1S(=O)(=O)Nc1ccc2c(c1)CCCN2C(=O)c1cccs1 2.23%
COc1ccc(N2C(=O)C(CC(=O)Nc3ccc(F)cc3)N(Cc3ccc4c(c3)OCO4)C2=O)cc1 (configuration not stated) -8.91%
O=C1c2[nH]nc(-c3ccccc3O)c2C(c2ccccc2F)N1Cc1ccncc1 (configuration not stated) -4.58%
CCOC(=O)Cc1ccc(NC(=O)NCc2cccn2Cc2ccccc2)cc1 -1.57%
COc1ccc(-n2c(=O)c3sc4ccccc4c3n(CC(=O)Nc3ccccc3F)c2=O)cc1 -1.91%
Cc1ccc(NC(=O)CSc2nc(-c3cccs3)nc3cc(=O)[nH]n23)cc1 1.95%
Cc1ccc(Nc2nnc(-c3ccc(C)c(S(=O)(=O)N4CCOCC4)c3)c3ccccc23)c(C)c1 19.1%
CCOc1ccc(C(=O)c2cn(Cc3ccc(Cl)cc3)c3cc(OC)c(OC)cc3c2=O)cc1 0.863%
CCC(Cc1ccccc1)NC(=O)Cn1ncc2c3ccccc3n(Cc3ccccc3)c2c1=O (configuration not stated) -0.498%
CCc1nc2nc(C)cc(Nc3ccc(OC)cc3OC)n2n1 -5.92%
Cc1ccc2c(c1)NC(=O)C(CC(=O)Nc1ccccc1Cl)O2 (configuration not stated) -0.0902%
Cc1cc(C)n2nc(SCC(=O)Nc3ccccc3C)nc2n1 -0.14%
Cc1ccc(Cl)cc1N1CCN(C(=O)c2cc(S(=O)(=O)N3CCCC3)cn2C)CC1 -4.42%
Cc1ccc(NC(=O)Cn2c(=O)n(-c3ccccc3)c(=O)c3c4c(sc32)CCCC4)cc1 2.82%
COc1ccc(C)cc1Nc1nc2cc(Cl)c(Cl)cc2nc1-n1nc(C)cc1C -0.0717%
COc1ccc(C)cc1NC(=O)CSc1nc(=O)n(Cc2ccncc2)c2c1CCC2 0.518%
C=Cc1ccc(CN2C(=O)N(c3ccc(CC)cc3)S(=O)(=O)c3ccccc32)cc1 -5.04%
COc1ccc(C(=O)NCCc2sc(-c3ccc(Cl)cc3)nc2C)c(OC)c1 -16.7%
Cc1ccc(C)c(CN2C(=O)c3ccccc3S(=O)(=O)c3ccc(C(=O)N4CCN(c5ccccn5)CC4)cc32)c1 0.622%
CCc1cccc(N2C(=O)N(CC(=O)NCc3cccc(OC)c3OC)c3ccccc3S2(=O)=O)c1 -8.3%
CCCN1C(=O)C(Cc2nc3ccccc3c(=O)n2-c2ccccc2)c2cc(C)ccc21 (configuration not stated) -28.3%
COc1cc(NC(=O)CN2C(=O)COc3ccc(S(=O)(=O)N4CCCCC4)cc32)cc(OC)c1 1.96%
CCOC(=O)COc1ccc(C)cc1C(=O)c1ccn2nc(-c3ccc(C)cc3)cc2n1 -0.822%
COC(=O)c1ccc(OCC2c3cc(OC)c(OC)cc3CCN2C(=O)C(C)C)cc1 (configuration not stated) 0%
COCCNC(=O)c1ccc(CSc2nc3ccncc3n2Cc2ccccc2)cc1 0.863%
O=C(CSc1ncc2c(n1)-c1ccccc1N(Cc1ccccc1)S2(=O)=O)Nc1ccccc1 0%
CCC(=O)N1CCc2cc(S(=O)(=O)CCC(=O)N3CCN(c4cc(C)ccc4C)CC3)ccc21 1.79%
COc1cccc(NC(=O)CSc2nc3ccccc3n2C)c1 0.32%
CCOc1ccc(NC(=O)c2c(NC(=O)Cc3ccccc3)sc3c2CCC(C)C3)cc1 (configuration not stated) -3.61%
COc1ccc(OC)c(NC(=O)CN(C)S(=O)(=O)c2ccc3[nH]c4c(c3c2)CCCC4)c1 2.54%
CCOc1ccc(C(=O)NCC(c2ccc3c(c2)OCO3)N2CCN(c3ccccc3F)CC2)cc1 (configuration not stated) -5.73%
COCCCNC(=O)C1CCN(Cc2nc(-c3ccc(OC)c(OC)c3)oc2C)CC1 -4.15%
COc1ccc(Cn2nnc(C(=O)Nc3cc(OC)ccc3OC)c2N)cc1 -10.4%
COc1ccc(OC)c(CCNC(=O)c2c(C)nn(-c3ccc(F)cc3)c2-n2cccc2)c1 -7.53%
CCn1c(=O)cc(SCC(=O)NCCc2cc(OC)ccc2OC)c2ccccc21 15.5%
Cc1nnc(N2CCC(C(=O)NC3CCCCC3)CC2)c2nn(-c3ccc(Cl)cc3)c(C)c12 -7.33%
CCOc1ccc(NC(=O)c2c(NCc3ccc(C)o3)sc3c2CCC(C)C3)cc1 (configuration not stated) -4%
O=C(CN1C(=O)COc2ccc(Cl)cc21)Nc1ccc(F)cc1 -12.3%
CCN(C(=O)c1nn(-c2ccc(OC)c(Cl)c2)c(=O)c2c1c1ccccc1n2C)c1cccc(C(F)(F)F)c1 1.63%
CCCOc1cccc(C(=O)Nc2cccc3cccnc23)c1 0.352%
CC(C)OCCCNC(=O)c1ccc(CSc2nc3cccnc3n2Cc2ccccc2)cc1 -12%
COc1ccc(-c2nc3ccc(NS(=O)(=O)c4ccc(C)cc4)cc3o2)cc1 2.1%
O=C(OCc1cc(=O)n2nc(-c3cccs3)sc2n1)c1ccc(Cl)cc1 -11%
Cc1ccc(NC(=O)Cn2ncn3c(cc4ccccc43)c2=O)cc1F -2.64%
CCC1=C(c2ccc(C)cc2)S(=O)(=O)N=C1N1CCC(C(=O)Nc2ccccc2F)CC1 -8.3%
Cc1ccc(Cn2c(C(=O)NCc3ccccc3Cl)cc3sccc32)cc1 -13.5%
COC(=O)c1c(SCC(=O)Nc2cc(OC)cc(OC)c2)[nH]c2ccc(C)cc2c1=O -10.6%
Cc1cccc(NC(=O)CSc2nnc3[nH]c(=O)cc(-c4ccccc4)n23)c1C 0.181%
CCOc1ccc(CNCc2c(C(=O)O)c(C)n(Cc3cccc(OC)c3)c2C)cc1OC 0.48%
Cc1cc(CN2CCN(c3ccccc3F)CC2)cs1 -0.908%
O=C(CCC(=O)N1CC2CCCN2c2ccccc21)NCc1ccc(Cl)cc1 (configuration not stated) -8.62%
CCC1CCC(C(=O)NC(C(=O)Nc2cccc(OC)c2)C(C)C)CC1 (configuration not stated) -0.561%
Cc1nc2nc(CNC(=O)OC(C)(C)C)nn2c(C)c1CCC(=O)NCc1ccc(F)cc1 -0.815%
